# Measurements: PubChem BioAssay AID1347073 (National Center for Advancing Translational Sciences (NCATS), 2019)
# The whole screen tested about 45,000 compounds, of which about 200 (0.44%) were called active. Inconclusive results (about 7%) are left out. The call rests on the fitted dose curve; in most records, active means well fitted activation curve with a large enough effect; inconclusive means small, poorly fitted or top-dose-only effect; inactive means no such curve, though single readings can be large or run the other way. This is one part of the list.
# Test: qHTS of TDP-43 Inhibitors: NCGC Sytravon Library Screen; further: nearly all actives have a fitted effect of over 55% in size; on growth rescue (activation): 0% is about no effect
# Conditions: yeast TDP-43 toxicity rescue, BacTiter-Glo growth, 24 h; series mostly up to 46.1 µM; growth rescue (activation): at the top concentration
# Outline: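 TDP-43-expressing yeast, pregrown in raffinose, seeded at OD600 0.02 in galactose medium with compound for 24 hr at 30 deg C. Growth read by BacTiter-Glo luminescence, so rescue of toxicity appears as activation.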
# Potency means the concentration at half of the fitted maximal effect.
Compound,growth rescue (activation),Potency
CC1CCCCN1C(=O)CSc1nnc(-c2ccco2)n1C (stereo not given),inactive: 1.93%,
Cc1onc(-c2ccccc2)c1C(=O)N1CCCC(C)(C(=O)NS(=O)(=O)C2CC2)C1 (stereo not given),inactive: -8.86%,
Cn1c(-c2sc3cc(C(F)(F)F)cnc3c2-c2cccs2)n[nH]c1=S,inactive: 10.4%,
CCSc1nnc(NC(=O)CCNS(=O)(=O)c2ccccc2F)s1,inactive: 8.81%,
Cc1ccc(F)cc1NC(=O)/C=C/c1ccc(S(=O)(=O)N2CCOCC2)cc1,inactive: 9.57%,
CCCSc1nc(=S)n(Cc2ccccc2)c(C)c1C(C)=O,inactive: 15.6%,
CCC(=O)N1CCCC1(C)C(=O)Nc1cccc(Oc2ccccc2)c1 (stereo not given),inactive: 11%,
CCC1=NN(C(=O)c2cccnc2)C(O)(C(F)(F)F)C1 (stereo not given),inactive: 5.82%,
Cc1ccc(C)c(N(CC(=O)N2CCCC2)S(C)(=O)=O)c1,inactive: 5.01%,
CC1=Nc2cc(C(=O)NCCCOC(C)C)ccc2Sc2ccc(C)cc21,inactive: 20.2%,
Cc1ccc(OCC(=O)Nc2ccc(S(=O)(=O)N3CCOCC3)cc2)c(Br)c1,inactive: -2.19%,
NS(=O)(=O)c1ccc(NC(=O)COC(=O)CCc2ccccc2)cc1,inactive: 29.7%,
CCCSc1nnc(NC(=O)Nc2ccc(C)cc2)s1,inactive: 16.1%,
O=C(Nc1ccc(OCC(=O)N2CCOCC2)cc1)c1cc(F)c(F)cc1Cl,inactive: 9.77%,
O=C(O)c1nn(CCOc2cccc(Br)c2)c(=O)c2ccccc12,,active: 17.8 µM
CCOC(=O)N1CCN(C(=O)C2CCCN(S(=O)(=O)c3ccc(F)cc3)C2)CC1 (stereo not given),inactive: -15.9%,
COc1cc(NC(=O)Cn2cnc3sc(C)c(S(=O)(=O)N4CCOCC4)c3c2=O)cc(OC)c1OC,inactive: -16.9%,
CCC1C(=O)N=C(SCC(=O)Nc2ccc(C)cc2)N(c2ccccc2)C1=O (stereo not given),inactive: 9.5%,
O=C(COC(=O)C1CCN(S(=O)(=O)c2ccc3c(c2)OCCO3)CC1)Nc1cccc2ccccc12,inactive: -6%,
O=C(NCCSC1CCCCC1)c1ccccc1,inactive: 29.2%,
CC(Oc1ccc(Cl)cc1C(N)=O)C(=O)N1CCc2ccccc21 (stereo not given),inactive: 11.4%,
O=[N+]([O-])c1cccc(C(=S)N2CCN(c3ccc(F)cc3)CC2)c1,inactive: 8.46%,

Compound,growth rescue (activation),Potency
O=C(/C=C/c1ccc(F)cc1)NC(=S)Nc1ccccc1O,inactive: -1.72%,
CCN1CCN(C(=O)c2ccccc2Nc2ccc(SC(F)F)cc2)CC1,inactive: 1.16%,
CC1(Cc2cc(Cl)ccc2C(F)(F)F)C(=O)Nc2cc(C(F)(F)F)ccc21 (stereo not given),inactive: -4.32%,
O=C(NCC1CCCCC1)c1csc([C@@H]2O[C@H](CO)[C@H](O)[C@H](O)[C@H]2O)n1,inactive: 7.61%,
COc1ccc(C(=O)c2cn[nH]c2-c2ccc(C)cc2O)cc1,inactive: 3.28%,
Cc1ccccc1N1CC(C(=O)N2CCc3ccccc32)CC1=O (stereo not given),inactive: 25.4%,
CCCCc1c(O)nc(SCC(=O)N2CCOCC2)n(-c2ccc(OC)cc2)c1=O,inactive: 5.04%,
CCOC(=O)CN(C(=O)CSc1nnnn1C)c1ccccc1,inactive: -3.26%,
CC(C)(C)n1ncc2c(=O)n(CC(=O)NC3CCCCC3)cnc21,inactive: 3.67%,
COC(=O)C[n+]1cccc2ccccc21,inactive: -40.1%,
O=C(NC(Cc1c[nH]c2ccccc12)C(=O)O)/C(=C\c1ccccc1)NC(=O)c1ccccc1 (stereo not given),inactive: 0.437%,
Cc1c(NC(=O)COC(=O)C2(c3ccccc3F)CCCC2)c(=O)n(-c2ccccc2)n1C,inactive: 3.53%,
Cc1ccc(N2CC(C(=O)Nc3cccnc3)CC2=O)cc1Cl (stereo not given),inactive: 3.96%,
O=C(O)CN=C1CC(c2ccccc2)CC(=O)/C1=C(/O)CCCN1C(=O)c2ccccc2C1=O (stereo not given),inactive: -5.21%,
NS(=O)(=O)c1ccc(CNC(=O)C2CCCN2C(=O)c2cccs2)cc1 (stereo not given),inactive: 9.58%,
O=C(Nc1nccs1)c1ncc(Cl)c(Cl)c1Cl,inactive: 23.8%,
O=C(OCC(=O)N1CCCC1)c1ccc(OC(F)(F)F)cc1,inactive: 3.54%,
COc1ccc(-c2nnc(SCC(=O)N3CCCc4ccccc43)o2)cc1OC,inactive: 15.3%,
O=C(O)c1ccc(NC(=O)c2cn(-c3ccccc3)nc2-c2ccc(Br)cc2)cc1,inactive: 5.71%,
Cc1ccc2nc(-c3ccc(N)cc3)sc2c1,inactive: -2.49%,
CCCCOC(=O)c1ccc(NC(=O)c2cnc3n(c2=O)CCS3)cc1,inactive: 28.2%,
O=C(NCc1ccc2c(c1)OCO2)C1CCCN1S(=O)(=O)c1ccc(F)cc1 (stereo not given),inactive: 30%,

Compound,growth rescue (activation),Potency
O=[N+]([O-])c1ccc(-c2cn(-c3ccccc3F)c(=S)[nH]2)cc1,inactive: 7.55%,
C=CCn1c(SCC(=O)c2c(N)n(C)c(=O)n(C)c2=O)nnc1-c1ccccc1F,inactive: -2.62%,
Cc1cc(NS(=O)(=O)c2ccc(NC(=O)/C=C/c3ccco3)cc2)nc(C)n1,inactive: 6.25%,
O=C(COC(=O)CCC(=O)c1ccc(Cl)cc1)NC1CC1,inactive: -0.766%,
COc1cc(NC(=O)C2=C(C)OCCS2)c(Cl)cc1C(=O)NCCN(C)C,inactive: -14%,
CC1CCOC2(O1)C(=O)Nc1ccccc12 (stereo not given),inactive: 13.8%,
O=C(c1cc(C2CC2)on1)N1CCCC(N2CCN(c3cccc(C(F)(F)F)c3)CC2)C1 (stereo not given),inactive: -9.37%,
O=C(NC(=S)NCc1cccnc1)c1cccc2ccccc12,inactive: 6.48%,
Cc1noc(C)c1COC(=O)c1ccc(F)c(S(=O)(=O)N2CCCCC2)c1,inactive: 10.9%,
Cc1ccccc1C(=O)NC1CCN(CC(=O)N2CCCCC2C)CC1 (stereo not given),inactive: 20.6%,
Cn1c(=S)n(C)c2ccccc21,inactive: 10.6%,
CC(C)c1ccccc1NC(=O)CC1(CC(=O)O)CCCC1,inactive: -9.89%,
CCOc1ccc(C(=O)Nc2ccc(N3CCCC3)cc2)cc1,inactive: -29.7%,
CC(C)c1ccccc1NC(=O)COC(=O)Cc1cccc(C(F)(F)F)c1,inactive: 7.26%,
O=[N+]([O-])c1ccc(NCc2ccncc2)cc1,inactive: 1.97%,
COCCNc1nc(Oc2ccccc2)c2sccc2n1,inactive: 25.3%,
O=C(CNC(=O)c1ccccc1Cl)NCCc1cccs1,inactive: 3.14%,
Cc1sc2ncnc(SCc3ccco3)c2c1C,inactive: 21.5%,
CCOC(=O)CSc1nc(-c2ccccn2)ncc1OC,inactive: 4.66%,
CC1CCCN(c2nc(NCc3ccco3)nc(N)c2[N+](=O)[O-])C1 (stereo not given),inactive: 32.1%,
O=C(NCCCN1CCCC1)c1cc2c(Cl)nc3ccccc3c2s1,inactive: -2.65%,
COc1cc(NC(=O)c2cc(-c3ccco3)on2)cc(OC)c1OC,inactive: -4.17%,

Compound,growth rescue (activation),Potency
c1ccc(Cn2nc(-c3ccccc3)nc2-c2ccccc2)cc1,inactive: 20.1%,
O=C(COC(=O)c1ccc(F)cc1F)Nc1ccc2[nH]c(=O)[nH]c2c1,inactive: 1.3%,
NS(=O)(=O)c1ccc(NC(=O)COC(=O)C2(c3ccc(F)cc3)CCCC2)cc1,inactive: 10.6%,
Cc1ccc(CN2CCN(Cc3ccc(OC(C)C)cc3)CC2CCO)o1 (stereo not given),inactive: -3.6%,
COC(=O)c1ccccc1NC(=O)CSc1nccc(C)n1,inactive: 0.459%,
CC(=O)Nc1ccc(NC(=O)CN2C(=O)NC3(CCCCCCC3)C2=O)cc1,inactive: 8.6%,
O=C(NCc1ccccn1)c1ccccc1-c1ccccc1,inactive: -4.14%,
CC(=O)N1N=C(c2cccs2)CC1c1cccs1 (stereo not given),inactive: 20.6%,
CC1(C(=O)NCc2ccccc2Br)CCN1Cc1ccccc1OC(F)F (stereo not given),inactive: -1.08%,
CCCS(=O)(=O)NC(=O)C1(C)CCCN(C(=O)c2ccco2)C1 (stereo not given),inactive: -0.888%,
O=C(O)CCCN=Cc1c(O)c2ccccc2oc1=O,inactive: -11.7%,
CCOC(=O)CC(=O)Nc1ccc(C)cc1,inactive: 18.2%,
N#C/C(=C/c1ccc(O)c(O)c1)C(=O)NCc1ccc(Cl)cc1,inactive: -12.7%,
CCOC(=O)c1c(NC(=O)CCN2C(=O)c3cccc([N+](=O)[O-])c3C2=O)sc(C(=O)OC(C)C)c1C,inactive: 10.4%,
COCCCNC(=O)Cn1c(=O)n(CCCCCC(=O)NCc2ccc3c(c2)OCO3)c(=O)c2sccc21,inactive: 0.486%,
Cc1cc(C(F)F)n2ncc(C(=O)NCc3ccc(F)cc3)c2n1,inactive: 5.9%,
C/C(=N\NS(=O)(=O)c1ccccc1)c1ccc2c(c1)OCCO2,inactive: -7.26%,
Cn1c(CNC(=O)c2ccco2)nnc1SCC(=O)c1ccccc1,inactive: 4.31%,
OC(COCc1ccc(Cl)cc1)CN1CCc2ccccc2C1 (stereo not given),inactive: -5.99%,
COCCSc1ccccc1C(=O)Nc1cc(C)cc(C)c1,inactive: 25.6%,
CC(C)(C)c1cc(=O)n2[nH]c(N)nc2n1,inactive: 10.6%,
COc1ccccc1NC(=O)CC(=O)c1ccccc1,inactive: 14.3%,

Compound,growth rescue (activation),Potency
Cc1ccccc1S(=O)(=O)NC(=O)C1(C)CCN1C(=O)C(C)(C)c1ccccc1 (stereo not given),inactive: 27.9%,
O=C(CSc1nnc2c(n1)[nH]c1ccccc12)NC1CCCCC1,inactive: -20.7%,
CCn1cc(CNC(=O)c2cccc([N+](=O)[O-])c2)c(C)n1,inactive: -22.4%,
COc1ccccc1NC(=O)NC1(C(=O)N2CCOCC2)CCCCC1,inactive: 3.48%,
C/C(=N\N1CCN(Cc2ccc(Cl)cc2)CC1)c1ccc([N+](=O)[O-])cc1,inactive: 15.8%,
COc1ccc(CCNC(=O)C2=C(C)C(=O)OC23CCCCC3)c(OC)c1OC,inactive: 5.83%,
O=C(O)CCN(Cc1ccccc1)S(=O)(=O)c1ccc(Cl)cc1F,inactive: -1.72%,
O=C(Nc1ccccc1N1CCOCC1)c1ccc(OCc2cscn2)cc1,inactive: 32.7%,
O=C(CN1CCN(Cc2ccccc2)CC1)NCc1ccccc1Cl,inactive: -7.57%,
Cc1c(NC(=O)COC(=O)c2cccn2C)c(=O)n(-c2ccccc2)n1C,inactive: -16%,
CCSc1nc2ccccc2c(=O)n1C1CCOC(C)(C)C1 (stereo not given),inactive: 15.3%,
NC(=O)N/N=C/c1c(F)cccc1F,inactive: -15.7%,
Cc1ccc([N+](=O)[O-])cc1S(=O)(=O)NCCc1c(C)[nH]c2c(C)cccc12,inactive: 17.7%,
C=CCN(C(=O)c1csnn1)C(C(=O)NC(C)(C)C)c1ccncc1 (stereo not given),inactive: 12.7%,
Cn1ccc(NC(=O)Nc2cccc(C(F)(F)F)c2)n1,inactive: 9.59%,
CC(=O)C1=C(O)C(=O)N(c2cccc(Br)c2)C1c1ccccc1Cl (stereo not given),inactive: -8.71%,
CCC(Oc1ccccc1C)C(=O)Nc1ccc(S(=O)(=O)Nc2cc(C)on2)cc1 (stereo not given),inactive: 12.6%,
O=C(Cn1cncc1-c1ccc([N+](=O)[O-])cc1)Nc1cccc2ccccc12,inactive: -11.5%,
O=Cc1cnc2ccccc2c1-c1ccccc1,inactive: 3.35%,
CC(C(=O)O)n1nnc2ccccc21 (stereo not given),inactive: 6.61%,
COc1ccc([N+](=O)[O-])cc1N(CC(O)CN(C)C)S(=O)(=O)c1ccc(C)cc1 (stereo not given),inactive: 1.54%,
O=C(CCCC(=O)NCCc1ccccc1)NCCc1ccccc1,inactive: -1.64%,
